# The supplement of paper PMC8728848
# Some of the results follow.
# B1: MGL6A (Homo sapiens) (protein)
# chain: MTRTYENFQYLENKVKVQGFKNGPLPLQSLLQRLCSGPCHLLLSLGLGLLLLVIICVVGFQNSKFQRDLVTLRTDFSNFTSNTVAEIQALTSQGSSLEETIASLKAEVEGFKQERQAVHSEMLLRVQQLVQDLKKLTCQVATLNNNGEEASTEGTCCPVNWVEHQDSCYWFSHSGMSWAEAEKYCQLKNAHLVVINSREEQNFVQKYLGSAYTWMGLSDPEGAWKWVDGTDYATGFQNWKPGQPDDWQGHGLGGGEDCAHFHPDGRWNDDVCQRPYHWVCEAGLGQTSQESH
# Assays:
# Experiment in all cases: glycan array binding signal (z-score within array); higher = stronger binding
# Conditions in all cases: glycan notation: IUPAC condensed, linker removed
# [1] = molecular target: Gal(b1-4)GlcNAc(b1-2)[Gal(b1-4)GlcNAc(b1-6)]Man(a1-6)[GlcNAc(b1-4)][Gal(b1-4)GlcNAc(b1-2)Man(a1-3)]Man(b1-4)GlcNAc(b1-4)GlcNAc
# Summary of the method: (§1)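 Arrays were curated from the Consortium for Functional Glycomics database, 3228 in total, and kept only where the protein sequence was available. Binding is expressed as a within-array Z-score. This score was averaged across arrays of the same protein sequence at different concentrations or buffers and across linkers, and negative values can be read as non-binding.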
# [2] = molecular target: Gal(b1-4)GlcNAc(b1-2)[Gal(b1-4)GlcNAc(b1-6)]Man(a1-6)[GlcNAc(b1-4)][Gal(b1-4)GlcNAc(b1-2)[Gal(b1-4)GlcNAc(b1-4)]Man(a1-3)]Man(b1-4)GlcNAc(b1-4)[Fuc(a1-6)]GlcNAc
# Summary of the method: as §1
# [3] = molecular target: Gal(b1-4)GlcNAc(b1-3)Gal(b1-3)GalNAc
# Summary of the method: as §1
# [4] = molecular target: Gal(b1-4)GlcNAc(b1-3)Gal(b1-3)GlcNAc
# Summary of the method: as §1
# [5] = molecular target: Gal(b1-4)GlcNAc(b1-3)Gal(b1-4)Glc
# Summary of the method: as §1
# [6] = molecular target: Gal(b1-4)GlcNAc(b1-3)Gal(b1-4)GlcNAc
# Summary of the method: as §1
# [7] = molecular target: Gal(b1-4)GlcNAc(b1-3)Gal(b1-4)GlcNAc(b1-2)Man(a1-3)[Gal(b1-4)GlcNAc(b1-3)Gal(b1-4)GlcNAc(b1-2)Man(a1-6)]Man(b1-4)GlcNAc(b1-4)GlcNAc
# Summary of the method: as §1
# [8] = molecular target: Gal(b1-4)GlcNAc(b1-3)Gal(b1-4)GlcNAc(b1-2)Man(a1-3)[Gal(b1-4)GlcNAc(b1-3)Gal(b1-4)GlcNAc(b1-2)Man(a1-6)]Man(b1-4)GlcNAc(b1-4)[Fuc(a1-6)]GlcNAc
# Summary of the method: as §1
# [9] = molecular target: Gal(b1-4)GlcNAc(b1-3)Gal(b1-4)GlcNAc(b1-2)[Gal(b1-4)GlcNAc(b1-3)Gal(b1-4)GlcNAc(b1-6)]Man(a1-6)[Gal(b1-4)GlcNAc(b1-3)Gal(b1-4)GlcNAc(b1-2)Man(a1-3)]Man(b1-4)GlcNAc(b1-4)GlcNAc
# Summary of the method: as §1
# [10] = molecular target: Gal(b1-4)GlcNAc(b1-3)Gal(b1-4)GlcNAc(b1-2)[Gal(b1-4)GlcNAc(b1-3)Gal(b1-4)GlcNAc(b1-6)]Man(a1-6)[Gal(b1-4)GlcNAc(b1-3)Gal(b1-4)GlcNAc(b1-2)Man(a1-3)]Man(b1-4)GlcNAc(b1-4)[Fuc(a1-6)]GlcNAc
# Summary of the method: as §1
# [11] = molecular target: Gal(b1-4)GlcNAc(b1-3)Gal(b1-4)GlcNAc(b1-3)Gal(b1-4)GlcNAc
# Summary of the method: as §1
# [12] = molecular target: Gal(b1-4)GlcNAc(b1-3)Gal(b1-4)GlcNAc(b1-3)Gal(b1-4)GlcNAc(b1-2)Man(a1-3)[Gal(b1-4)GlcNAc(b1-3)Gal(b1-4)GlcNAc(b1-3)Gal(b1-4)GlcNAc(b1-2)Man(a1-6)]Man(b1-4)GlcNAc(b1-4)GlcNAc
# Summary of the method: as §1
# [13] = molecular target: Gal(b1-4)GlcNAc(b1-3)Gal(b1-4)GlcNAc(b1-3)Gal(b1-4)GlcNAc(b1-2)Man(a1-3)[Gal(b1-4)GlcNAc(b1-3)Gal(b1-4)GlcNAc(b1-3)Gal(b1-4)GlcNAc(b1-2)Man(a1-6)]Man(b1-4)GlcNAc(b1-4)[Fuc(a1-6)]GlcNAc
# Summary of the method: as §1
# [14] = molecular target: Gal(b1-4)GlcNAc(b1-3)Gal(b1-4)GlcNAc(b1-3)Gal(b1-4)GlcNAc(b1-2)[Gal(b1-4)GlcNAc(b1-3)Gal(b1-4)GlcNAc(b1-3)Gal(b1-4)GlcNAc(b1-6)]Man(a1-6)[Gal(b1-4)GlcNAc(b1-3)Gal(b1-4)GlcNAc(b1-3)Gal(b1-4)GlcNAc(b1-2)Man(a1-3)]Man(b1-4)GlcNAc(b1-4)[Fuc(a1-6)]GlcNAc
# Summary of the method: as §1
# [15] = molecular target: Gal(b1-4)GlcNAc(b1-3)Gal(b1-4)GlcNAc(b1-3)Gal(b1-4)GlcNAc(b1-3)Gal(b1-4)GlcNAc(b1-2)Man(a1-3)[Gal(b1-4)GlcNAc(b1-3)Gal(b1-4)GlcNAc(b1-3)Gal(b1-4)GlcNAc(b1-3)Gal(b1-4)GlcNAc(b1-2)Man(a1-6)]Man(b1-4)GlcNAc(b1-4)GlcNAc
# Summary of the method: as §1
# [16] = molecular target: Gal(b1-4)GlcNAc(b1-3)Gal(b1-4)GlcNAc(b1-3)Gal(b1-4)GlcNAc(b1-3)Gal(b1-4)GlcNAc(b1-2)Man(a1-3)[Gal(b1-4)GlcNAc(b1-3)Gal(b1-4)GlcNAc(b1-3)Gal(b1-4)GlcNAc(b1-3)Gal(b1-4)GlcNAc(b1-2)Man(a1-6)]Man(b1-4)GlcNAc(b1-4)[Fuc(a1-6)]GlcNAc
# Summary of the method: as §1
# [17] = molecular target: Gal(b1-4)GlcNAc(b1-3)Gal(b1-4)GlcNAc(b1-3)Gal(b1-4)GlcNAc(b1-3)Gal(b1-4)GlcNAc(b1-2)[Gal(b1-4)GlcNAc(b1-3)Gal(b1-4)GlcNAc(b1-3)Gal(b1-4)GlcNAc(b1-3)Gal(b1-4)GlcNAc(b1-6)]Man(a1-6)[Gal(b1-4)GlcNAc(b1-3)Gal(b1-4)GlcNAc(b1-3)Gal(b1-4)GlcNAc(b1-3)Gal(b1-4)GlcNAc(b1-2)Man(a1-3)]Man(b1-4)GlcNAc(b1-4)[Fuc(a1-6)]GlcNAc
# Summary of the method: as §1
# [18] = molecular target: Gal(b1-4)GlcNAc(b1-3)Gal(b1-4)GlcNAc(b1-3)Gal(b1-4)GlcNAc(b1-3)Gal(b1-4)GlcNAc(b1-3)Gal(b1-4)GlcNAc(b1-2)Man(a1-3)[Gal(b1-4)GlcNAc(b1-3)Gal(b1-4)GlcNAc(b1-3)Gal(b1-4)GlcNAc(b1-3)Gal(b1-4)GlcNAc(b1-3)Gal(b1-4)GlcNAc(b1-2)Man(a1-6)]Man(b1-4)GlcNAc(b1-4)GlcNAc
# Summary of the method: as §1
# [19] = molecular target: Gal(b1-4)GlcNAc(b1-3)Gal(b1-4)GlcNAc(b1-3)Gal(b1-4)GlcNAc(b1-3)Gal(b1-4)GlcNAc(b1-3)Gal(b1-4)GlcNAc(b1-2)Man(a1-3)[Gal(b1-4)GlcNAc(b1-3)Gal(b1-4)GlcNAc(b1-3)Gal(b1-4)GlcNAc(b1-3)Gal(b1-4)GlcNAc(b1-3)Gal(b1-4)GlcNAc(b1-2)Man(a1-6)]Man(b1-4)GlcNAc(b1-4)[Fuc(a1-6)]GlcNAc
# Summary of the method: as §1
binder,measurement,setting,value
B1,glycan array binding signal (z-score),[1],-0.277
same,glycan array binding signal (z-score),[2],-0.268
same,glycan array binding signal (z-score),[3],-0.304
same,glycan array binding signal (z-score),[4],-0.281
same,glycan array binding signal (z-score),[5],-0.284
same,glycan array binding signal (z-score),[6],-0.278
same,glycan array binding signal (z-score),[7],-0.262
same,glycan array binding signal (z-score),[8],-0.255
same,glycan array binding signal (z-score),[9],-0.161
same,glycan array binding signal (z-score),[10],-0.238
same,glycan array binding signal (z-score),[11],-0.296
same,glycan array binding signal (z-score),[12],-0.215
same,glycan array binding signal (z-score),[13],-0.231
same,glycan array binding signal (z-score),[14],-0.219
same,glycan array binding signal (z-score),[15],-0.227
same,glycan array binding signal (z-score),[16],-0.198
same,glycan array binding signal (z-score),[17],-0.228
same,glycan array binding signal (z-score),[18],-0.234
same,glycan array binding signal (z-score),[19],-0.193
